The whole screen tested about 150,000 compounds, of which about 540 (0.36%) showed an effect of 50% or more. This is one part of the list.
Each molecule was assayed on Plasmodium falciparum (assay: Primary screen in NF54 nanoGlo assay, in single point, at 2uM, 72h; a lower Z score goes with more inhibition). Details: timepoint 72 hour.
Type: functional, Erythrocyte
For CC(C)CS(=O)(=O)NC[C@]1(O)CCCc2occc21, the “% Inhibition” value was 9% and the Z score was -1.11.
For COCCN1C[C@]2(CCCN(C(=O)c3cc[nH]c3C)C2)CCC1=O, the “% Inhibition” value was -9% and the Z score was 0.84.
In the case of CC(=O)c1ccc(C)cc1OCC(=O)N1CCC(C(=O)N2CCCC2)CC1, the “% Inhibition” value was -16% and the Z score was 2.14.
With CC(C)(C)c1ncc(C(=O)NCc2ccc3c(n2)CCCC3)cn1 the “% Inhibition” value was -8% and the Z score was 0.99.
CN1C(=O)c2cc(C(F)(F)F)ccc2O[C@H]2CN(Cc3ccncc3Cl)C[C@H]21 was tested, and the “% Inhibition” value was 12% and the Z score was -1.73.
In the case of Cc1cnn(CCC(=O)N2CCC[C@H](N(CCCN3CCCC3)C(=O)C(C)C)C2)c1, the “% Inhibition” value was -3% and the Z score was 0.54.
CC1(C)CC(=O)C2=C(C1)NC(Nc1nc3ccccc3o1)=NC21CCCCC1 was tested, and the “% Inhibition” value was 34% and the Z score was -3.84.
CCOCC(C)(C)NC(=O)c1cc(N2CCNC(=O)C2)ccn1 was tested, and the “% Inhibition” value was -11% and the Z score was 1.49.
C#CCCN1CCN(C(=O)c2cc(=O)[nH]c3ccc(Cl)cc23)CC1 was tested, and the “% Inhibition” value was 2% and the Z score was -0.32.
For Cc1nccn1C[C@H]1CCCN(Cc2ccsc2)C1, the “% Inhibition” value was -10% and the Z score was 1.19.
For CC(=O)c1ccc(N2CCN(C3CCCCCCC3)CC2)cc1, the “% Inhibition” value was -3% and the Z score was 0.56.
For CC(C)c1nsc(NC2CCCC3OCCC23)n1 (stereo unspecified), the “% Inhibition” value was -6% and the Z score was 0.85.
O=C(c1ccc(N2CCCC2=O)cc1)N1CCc2[nH]c(-c3ccccc3)nc2C1 was tested, and the “% Inhibition” value was 1% and the Z score was -0.24.
With Cc1ccc(C(=O)Oc2ccc(N(C(=O)c3ccc(C)cc3)S(=O)(=O)c3ccc4ccccc4c3)c3ccccc23)cc1 the “% Inhibition” value was 3% and the Z score was -0.38.
With O=C(NC[C@H]1CC(=O)N(C2CC2)C1)N1CCC(Cc2cccc(F)c2)CC1 the “% Inhibition” value was -3% and the Z score was 0.48.
O=C(NCCCCc1nc(-c2ccccn2)cs1)[C@@H]1COCCO1 was tested, and the “% Inhibition” value was -11% and the Z score was 1.49.
CC(C)(C)c1nnc(C(=O)NC[C@H]2CCC3(CCOCC3)O2)o1 was tested, and the “% Inhibition” value was -10% and the Z score was 1.99.
In the case of Clc1cccc(CN2CC(c3nc(-c4cccnc4)no3)C2)c1, the “% Inhibition” value was -3% and the Z score was 0.6.
COc1ccccc1CCN1Cc2cc(NC(=O)c3cccs3)ccc2O[C@@H](C)C1=O was tested, and the “% Inhibition” value was 5% and the Z score was -0.55.
Cc1cc(NC(=O)[C@@H](OC(=O)CCC2CCCC2)C(C)C)no1 was tested, and the “% Inhibition” value was 9% and the Z score was -1.03.
With COc1ccc(N2C(=O)c3ccccc3[C@]2(O)c2ccccc2)cc1OC the “% Inhibition” value was 2% and the Z score was -0.26.
C[C@@H]1CN(C(=O)c2cccn2C2CC2)CC[C@@]1(O)C1CCOCC1 was tested, and the “% Inhibition” value was -14% and the Z score was 1.67.
Cc1noc(CNC(=O)Nc2cccc3c2OC(C)(C)C3)n1 was tested, and the “% Inhibition” value was -3% and the Z score was 0.37.
Fc1ccc(NCCCO[C@H]2CCOC2)nc1 was tested, and the “% Inhibition” value was -1% and the Z score was 0.16.
For C[C@H](NCC1(Cn2ccnc2)CC1)C(=O)NC1CCCC1, the “% Inhibition” value was 2% and the Z score was -0.32.
With Cc1cc(C)c(C(=O)O)cc1NC(=O)CCc1ccnn1C the “% Inhibition” value was -7% and the Z score was 1.19.
CC(C)=CCC/C(C)=C/CNC(=O)c1cncs1 was tested, and the “% Inhibition” value was 6% and the Z score was -0.92.
C[C@H](NCc1ccccc1CN1CCCCC1)C(=O)N1CC(=O)Nc2ccccc21 was tested, and the “% Inhibition” value was -18% and the Z score was 2.05.
For COCCOC[C@H]1CCN(C(=O)c2ccc3[nH]ccc3c2)C1, the “% Inhibition” value was -14% and the Z score was 1.88.
In the case of COC(=O)c1cc(C(=O)NC2CCCCCC2)no1, the “% Inhibition” value was -6% and the Z score was 0.99.
With COc1ccc(C(=O)N(Cc2cccc(C)c2)[C@@H]2CCCC[C@H]2NC(=O)[C@@H]2CCCN2C(=O)c2ccc(Cl)cc2Cl)cc1 the “% Inhibition” value was -2% and the Z score was 0.14.
For COC(=O)c1cc2n(n1)C[C@@](C)(C(=O)NC1CCC(C)CC1)N(Cc1ccc(OC(C)C)cc1)C2=O (stereo partly specified), the “% Inhibition” value was 12% and the Z score was -1.36.
For COc1cc(=O)[nH]cc1C(=O)Nc1cccc(CN2CCOCC2)n1, the “% Inhibition” value was 5% and the Z score was -0.94.
In the case of CC1(C)C[C@H]1C(=O)N1CC[C@@]2(C(=O)O)CCC[C@@H]12, the “% Inhibition” value was -8% and the Z score was 1.24.
In the case of Cn1ncc2c1NC(=O)C[C@@H]2c1cc(Cl)c2c(c1)OCO2, the “% Inhibition” value was 1% and the Z score was -0.08.
With FC(F)(F)c1nnc(CN2CCCC[C@H]2c2cn[nH]c2)s1 the “% Inhibition” value was -9% and the Z score was 1.02.
In the case of C#CCN(C(=O)CCCc1ccccc1)[C@H]1CCS(=O)(=O)C1, the “% Inhibition” value was -7% and the Z score was 0.89.
With O=C(c1ccc2nsnc2c1)N1CCn2nc3c(c2C1)CCC3 the “% Inhibition” value was 17% and the Z score was -2.22.
For Cn1nc(C(=O)N2CCCC2)c2c1CN(C(=O)Nc1ccccc1C(F)(F)F)C2, the “% Inhibition” value was -8% and the Z score was 0.95.
With COCc1noc([C@@H]2CN(S(=O)(=O)Cc3ccc(F)cc3)C[C@H]2C(N)=O)n1 the “% Inhibition” value was -1% and the Z score was 0.15.
In the case of CCCN(CC(F)F)S(=O)(=O)c1cccc(Cl)c1C#N, the “% Inhibition” value was -19% and the Z score was 2.94.
In the case of Cc1c(C(=O)N2CCC3(C2)OCCO3)cnn1CCO[C@@H]1CCCCO1, the “% Inhibition” value was -1% and the Z score was 0.17.
C=CCCN1C(=O)Nc2ccccc2S1(=O)=O was tested, and the “% Inhibition” value was 6% and the Z score was -0.83.
With Cc1nc2cc(C(=O)N3CCC(N4CCC(C(=O)NC5CC5)CC4)CC3)ccc2s1 the “% Inhibition” value was 2% and the Z score was -0.27.
O=C(C1CCC1)N1CCN(Cc2ccc(Cl)cc2)[C@@H]2CS(=O)(=O)C[C@@H]21 was tested, and the “% Inhibition” value was 6% and the Z score was -0.73.
With CC[C@H]1CN(CC(C)(C)C)Cc2cc(OC)ccc2O1 the “% Inhibition” value was -14% and the Z score was 2.09.
In the case of CCC[C@H]1C(=O)NCCN1C(=O)c1cncnc1C, the “% Inhibition” value was 2% and the Z score was -0.4.
NC(=O)c1cncc(NCc2cccnc2N2CCCCCCC2)n1 was tested, and the “% Inhibition” value was 7% and the Z score was -0.99.
For O[C@H]1[C@H](NCc2ccc(Cl)cc2)[C@@H](c2ccc(N3CCOCC3)nc2)C[C@H]1O, the “% Inhibition” value was -2% and the Z score was 0.32.
With CCOc1ccc([C@H](CNC(=O)c2cccc(N3C(=O)CCS3(=O)=O)c2)N2CCOCC2)cc1 the “% Inhibition” value was 1% and the Z score was -0.17.
In the case of CCn1cnc2c(N3CCC[C@H](c4ccncc4)C3)ncnc21, the “% Inhibition” value was 76% and the Z score was -10.16.
For CCn1cc(NC[C@@H]2CC=CCC2)cn1, the “% Inhibition” value was 11% and the Z score was -1.23.
With COc1ccc(NC(=O)c2c[nH]nc2-c2ccccc2)cn1 the “% Inhibition” value was 4% and the Z score was -0.76.
CC1(C)C(=O)Nc2cc(C(=O)NC3C4CCOC4C34CCC4)ccc21 (stereo unspecified) was tested, and the “% Inhibition” value was -10% and the Z score was 1.42.
COc1ncccc1C(=O)NC[C@H](C)O was tested, and the “% Inhibition” value was -11% and the Z score was 1.09.
For COc1ccc(F)cc1C(NC(=O)c1nccnc1O)[C@H]1C[C@H](O)C1 (stereo partly specified), the “% Inhibition” value was -9% and the Z score was 1.4.
With O=C1C[C@@H]2O[C@H](CN(Cc3ccc(F)c(F)c3)C[C@@H]3CN(CCO3)C(=O)[C@@H]3C[C@@H](CN3Cc3cccnc3)N1)[C@@H](O)[C@H]2O the “% Inhibition” value was 1% and the Z score was -0.11.
CC[C@]1(O)CCCN(C(=O)CCCN2CCCC2=O)C1 was tested, and the “% Inhibition” value was -2% and the Z score was 0.36.
With C[C@H](Nc1cnn(CC(F)F)c1)c1nc2ccccc2o1 the “% Inhibition” value was -3% and the Z score was 0.42.
O=C(NCc1ccccc1Cl)c1cc(C(=O)NCc2ccccc2Cl)cc(C(=O)NCc2ccccc2Cl)c1 was tested, and the “% Inhibition” value was -1% and the Z score was 0.15.
CC(C)C[C@H](C)S(=O)(=O)Nc1cccc(-c2nncn2C)c1 was tested, and the “% Inhibition” value was -9% and the Z score was 1.11.
In the case of CCOCc1ccccc1CNC(=O)CN1CCc2ncnc(OC)c2C1, the “% Inhibition” value was -2% and the Z score was 0.3.
For CC(C)NC(=O)COC(=O)C1=CCCCCC1, the “% Inhibition” value was 21% and the Z score was -2.41.
For Cc1nccc(N2CCCN(CC3CCC3)CC2)n1, the “% Inhibition” value was -5% and the Z score was 0.59.
In the case of CC1CCN(c2nc3c(c(Oc4ccc(F)c(F)c4)n2)CN(C(=O)Cc2ccc(F)cc2)CC3)CC1, the “% Inhibition” value was 1% and the Z score was -0.14.
O=C(Cc1ccc2c(c1)OCO2)N1CC[C@H](N2CCOC2=O)C1 was tested, and the “% Inhibition” value was -10% and the Z score was 1.72.
In the case of Cc1ccc2c(c1)CCCN2C(=O)c1cccc(N(C)C)c1, the “% Inhibition” value was 1% and the Z score was -0.14.
With O=C(NCCc1ccccc1)Nc1cccc(-c2cnc3n2CCC3)c1 the “% Inhibition” value was -3% and the Z score was 0.39.
CC(=O)Nc1sc2c(c1C(=O)Nc1cccc3ccccc13)CCCC2 was tested, and the “% Inhibition” value was 11% and the Z score was -1.34.
With COC[C@H]1CCCN1S(=O)(=O)NCc1cc2ccccc2[nH]1 the “% Inhibition” value was -5% and the Z score was 0.49.
For O=C(Cc1nnc(-c2cccs2)o1)NCCc1ccccc1, the “% Inhibition” value was -14% and the Z score was 1.41.
In the case of O=C(NCCc1nnc[nH]1)Nc1c(F)cccc1Oc1ccccc1, the “% Inhibition” value was 34% and the Z score was -3.88.
In the case of c1coc(-c2nc3c(c(NCCc4cscn4)n2)CCNCC3)c1, the “% Inhibition” value was -12% and the Z score was 1.07.
In the case of CC(NC(=O)CN1CCCC1c1cccs1)c1ccc(F)cc1 (stereo unspecified), the “% Inhibition” value was -9% and the Z score was 0.96.
With COc1ccc(OC)c(-c2ccn(CC(=O)Nc3cn(C)nn3)n2)c1 the “% Inhibition” value was -12% and the Z score was 1.77.
For Cc1ccc(O)c(-c2nc3c([nH]2)c(-c2ccccc2)nn3C)c1, the “% Inhibition” value was -1% and the Z score was 0.13.
In the case of O=C(CN1C(=O)C2(OCCO2)c2ccccc21)c1ccccc1, the “% Inhibition” value was -9% and the Z score was 1.17.
With Cc1nnc([C@H](C)NC(=O)c2coc(COc3cccc4cccnc34)n2)o1 the “% Inhibition” value was 3% and the Z score was -0.4.
For Cc1ccc(NC(=O)N2CC(CO)(CO)C2)cc1, the “% Inhibition” value was -1% and the Z score was 0.27.
For Cc1nc(C(=O)NCc2cccs2)c(C)[nH]1, the “% Inhibition” value was -16% and the Z score was 2.09.
CN(CC1=CCCN(CCNC(N)=O)C1)C(=O)C1CCCCC1 was tested, and the “% Inhibition” value was -3% and the Z score was 0.37.
CCc1nnc2c(=O)n(CC(=O)NCc3cccc(Cl)c3)c3cccnc3n12 was tested, and the “% Inhibition” value was -5% and the Z score was 0.63.
In the case of O=C(Nc1ccccc1C(=O)n1cnc2ccccc21)c1cccnc1O, the “% Inhibition” value was -12% and the Z score was 1.84.
